Source: PMC4336329 (PLoS ONE, 2015)
About 2,200 (0.71%) of roughly 310,000 compounds showed an effect of 50% or more. The effect is printed as a negative number. This is one part of the list. Where a SMILES comes first, the peptide text is derived from it. The star is where a group is joined. Boc = CC(C)(C)OC(=O)*

These compounds were tested against human ether-à-go-go-related gene (hERG) potassium channel (human, UniProt Q12809) (assay: primary screen, population patch clamp on CHO cells stably expressing hERG).
Chain of human ether-à-go-go-related gene (hERG) potassium channel (Q12809 whole entry, looked up): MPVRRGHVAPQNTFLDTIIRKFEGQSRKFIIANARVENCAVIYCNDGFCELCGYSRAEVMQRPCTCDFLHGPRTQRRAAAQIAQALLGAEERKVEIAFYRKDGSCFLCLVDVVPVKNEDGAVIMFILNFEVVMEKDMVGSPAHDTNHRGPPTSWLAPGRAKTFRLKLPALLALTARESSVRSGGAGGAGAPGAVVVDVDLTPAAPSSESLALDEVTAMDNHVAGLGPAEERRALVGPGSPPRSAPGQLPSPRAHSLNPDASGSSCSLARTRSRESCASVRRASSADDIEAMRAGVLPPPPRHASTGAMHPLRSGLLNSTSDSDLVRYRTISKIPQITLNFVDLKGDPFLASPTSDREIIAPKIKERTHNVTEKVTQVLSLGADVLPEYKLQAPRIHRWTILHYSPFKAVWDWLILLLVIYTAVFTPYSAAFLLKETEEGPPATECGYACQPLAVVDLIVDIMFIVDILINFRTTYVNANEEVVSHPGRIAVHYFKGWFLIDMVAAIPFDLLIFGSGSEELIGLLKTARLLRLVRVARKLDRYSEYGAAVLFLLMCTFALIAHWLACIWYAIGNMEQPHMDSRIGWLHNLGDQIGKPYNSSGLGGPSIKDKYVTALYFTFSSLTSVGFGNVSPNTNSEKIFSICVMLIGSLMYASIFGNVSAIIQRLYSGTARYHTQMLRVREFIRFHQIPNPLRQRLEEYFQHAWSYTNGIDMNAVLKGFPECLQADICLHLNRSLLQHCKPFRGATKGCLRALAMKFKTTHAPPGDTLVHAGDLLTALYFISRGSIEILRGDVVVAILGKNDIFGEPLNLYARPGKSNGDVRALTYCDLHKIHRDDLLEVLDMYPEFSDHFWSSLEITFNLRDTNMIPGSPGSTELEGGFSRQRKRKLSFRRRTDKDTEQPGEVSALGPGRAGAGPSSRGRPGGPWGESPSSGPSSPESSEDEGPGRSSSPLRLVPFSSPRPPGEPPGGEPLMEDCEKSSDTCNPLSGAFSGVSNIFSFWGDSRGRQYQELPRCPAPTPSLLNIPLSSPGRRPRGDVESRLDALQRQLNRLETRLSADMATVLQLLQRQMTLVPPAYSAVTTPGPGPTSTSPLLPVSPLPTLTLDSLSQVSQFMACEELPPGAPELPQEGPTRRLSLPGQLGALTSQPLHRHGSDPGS
For `CC1(C(=O)NC(=S)N(CCC#N)c2ccccc2)CC1(Cl)Cl` (stereo not drawn), the “hERG current change (%, negative = inhibition) at 1uM” value was -4.43%. `CCOC(=O)N1CCN(Cc2nc3c(c(=O)[nH]c(=O)n3C)n2Cc2cc(C)ccc2C)CC1` was tested, and the “hERG current change (%, negative = inhibition) at 1uM” value was 7.12%. In the case of `COC(=O)c1nnn(-c2ccccc2)c1N`, the “hERG current change (%, negative = inhibition) at 1uM” value is reported as -7.63%. In the case of `O=C(c1cccc([N+](=O)[O-])c1)N1CCOCC1`, the “hERG current change (%, negative = inhibition) at 1uM” value is reported as 12.7%. `C[C@@H](CN1C2=NC[C@H](Cc3ccc(O)cc3)N2C[C@H]1Cc1ccc(O)cc1)NC(=O)CCC1CCCCC1` was tested, and the “hERG current change (%, negative = inhibition) at 1uM” value was 12.5%. With `CN(Cc1ccccc1)C(=O)c1ccccc1NC(=O)C1CC1` the “hERG current change (%, negative = inhibition) at 1uM” value was -8.94%. `Cn1ccnc1SCC(=O)N(C1CCCCC1)C1CCCCC1` was tested, and the “hERG current change (%, negative = inhibition) at 1uM” value was 12.2%. In the case of `O=C(CCCNS(=O)(=O)c1ccc(F)cc1)Nc1ccc(F)cc1`, the “hERG current change (%, negative = inhibition) at 1uM” value is reported as 4.86%. With `COc1ccc(N2C(=O)CC(N3CCC(O)(c4ccc(Br)cc4)CC3)C2=O)cc1` (stereo not drawn) the “hERG current change (%, negative = inhibition) at 1uM” value was -8.45%. `O=C(c1cnn2c(C(F)F)cc(-c3ccccc3)nc12)N1CCc2ccccc2C1` was tested, and the “hERG current change (%, negative = inhibition) at 1uM” value was 13.3%. `COc1ccc(N2CCN(C(=O)CSc3nnc4ncccn34)CC2)cc1` was tested, and the “hERG current change (%, negative = inhibition) at 1uM” value was 1.99%. In the case of `CC1CCc2c(sc3nn[nH]c(=O)c23)C1` (stereo not drawn), the “hERG current change (%, negative = inhibition) at 1uM” value is reported as -9.43%. In the case of `Cc1ccc(N=C2SC(C(=O)O)CC(=O)N2C)cc1C` (stereo not drawn), the “hERG current change (%, negative = inhibition) at 1uM” value is reported as 2.88%. In the case of `CCC(C)C(NC(=O)C(C)NC(=O)CNC(=O)OC(C)(C)C)C(N)=O` (stereo not drawn) (Boc-Gly-Ala-Ile-NH2; configuration not given here), the “hERG current change (%, negative = inhibition) at 1uM” value is reported as 18.6%. `CCOc1ccc(-n2cc(C(=O)N3CCCCCC3)c3cc(OC)c(OC)cc3c2=O)cc1` was tested, and the “hERG current change (%, negative = inhibition) at 1uM” value was 1.47%. `Cc1ccc2nc(CCl)[n+]([O-])c(-c3ccccc3)c2c1` was tested, and the “hERG current change (%, negative = inhibition) at 1uM” value was 8.94%. `Cn1cccc1Cc1nnc(SCC(=O)Nc2cccc(F)c2)n1-c1ccc(F)cc1` was tested, and the “hERG current change (%, negative = inhibition) at 1uM” value was 4.07%. In the case of `CCC(C)c1ccccc1NC(=O)c1cc(C)no1` (stereo not drawn), the “hERG current change (%, negative = inhibition) at 1uM” value is reported as 16%. `Cc1csc(/C(C#N)=N/O)n1` was tested, and the “hERG current change (%, negative = inhibition) at 1uM” value was 7.55%. In the case of `CCN(CC)S(=O)(=O)c1ccc(N2CCCC2)c(NS(=O)(=O)c2ccccc2)c1`, the “hERG current change (%, negative = inhibition) at 1uM” value is reported as 1.88%. With `CC(C)(O)c1nnn(-c2ccccc2)c1C(F)(F)F` the “hERG current change (%, negative = inhibition) at 1uM” value was 8.02%. With `Cc1cccc(N2CCN(C(=O)CN3C(=O)C4CC=CCC4C3=O)CC2)c1C` (stereo not drawn) the “hERG current change (%, negative = inhibition) at 1uM” value was 18.1%. With `COc1ccc(/C(C)=N/NC(=O)CNC(=O)c2ccncc2)c(OC)c1` the “hERG current change (%, negative = inhibition) at 1uM” value was 8.76%. In the case of `O=C(O)c1c2c(nc3ccccc13)/C(=C/c1c(F)cccc1F)CCC2`, the “hERG current change (%, negative = inhibition) at 1uM” value is reported as 14.3%.
